{"source": "paper PMC12820563", "note": "The other results are listed elsewhere or left out. The list includes weakly bound sequences."}
{"target": "T1, MBP-FoxP3dN (UniProt Q99JB6)", "T1 sequence": "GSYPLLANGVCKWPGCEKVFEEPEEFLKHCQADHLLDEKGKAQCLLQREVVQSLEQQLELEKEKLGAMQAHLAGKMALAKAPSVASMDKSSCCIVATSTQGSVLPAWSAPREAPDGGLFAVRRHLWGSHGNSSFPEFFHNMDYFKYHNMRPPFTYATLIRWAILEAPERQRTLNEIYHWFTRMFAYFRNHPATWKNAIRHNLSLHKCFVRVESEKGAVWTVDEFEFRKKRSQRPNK", "assay": "PD-seq (MBP pull-down with sequencing)", "settings": "20 mM Tris-HCl pH 7.5, 100 mM NaCl, 1.5 mM MgCl2, 0.4 uM protein, 0.1 uM dsDNA library, 30 min, room temperature, amylose pull-down; high values mean tight binding; double strand, one strand shown"}
{"sequence": "GATGATTGTTCTCCCAGCTGATGAATTTGGTTTGTCGAGTAAACAAATTTTCCTAATCTTTCTGTTCAAGCGCCATCTAC", "binding signal (RPM ratio (pull-down/input))": 4.05}
{"sequence": "GATGATTGTTCTCCCAGCTGATGAATTCTCTGATTCGAGTAAACAAATTTTCCTAATCTTTCTGTTCAAGCGCCATCTAC", "binding signal (RPM ratio (pull-down/input))": 0.225}
{"sequence": "GATGATTGTTCTCCCAGCTGATGAATTTCTGTGTTCGAGTAAACAAATTTTCCTAATCTTTCTGTTCAAGCGCCATCTAC", "binding signal (RPM ratio (pull-down/input))": 0.716}
{"sequence": "GATGATTGTTCTCCCAGCTGATGAATTCCGCAAGTCGAGTAAACAAATTTTCCTAATCTTTCTGTTCAAGCGCCATCTAC", "binding signal (RPM ratio (pull-down/input))": 2.2}
{"sequence": "GATGATTGTTCTCCCAGCTGATGAATTAGATAAATCGAGTAAACAAATTTTCCTAATCTTTCTGTTCAAGCGCCATCTAC", "binding signal (RPM ratio (pull-down/input))": 0.313}
{"sequence": "GATGATTGTTCTCCCAGCTGATGAATTAAAGTGGTCGAGTAAACAAATTTTCCTAATCTTTCTGTTCAAGCGCCATCTAC", "binding signal (RPM ratio (pull-down/input))": 0.348}
{"sequence": "GATGATTGTTCTCCCAGCTGATGAATTAAGCAATTCGAGTAAACAAATTTTCCTAATCTTTCTGTTCAAGCGCCATCTAC", "binding signal (RPM ratio (pull-down/input))": 4.27}
{"sequence": "GATGATTGTTCTCCCAGCTGATGAATTCGTAAGTTCGAGTAAACAAATTTTCCTAATCTTTCTGTTCAAGCGCCATCTAC", "binding signal (RPM ratio (pull-down/input))": 0.449}
{"sequence": "GATGATTGTTCTCCCAGCTGATGAATTCAGTACATCGAGTAAACAAATTTTCCTAATCTTTCTGTTCAAGCGCCATCTAC", "binding signal (RPM ratio (pull-down/input))": 0.561}
{"sequence": "GATGATTGTTCTCCCAGCTGATGAATTCCGAAGGTCGAGTAAACAAATTTTCCTAATCTTTCTGTTCAAGCGCCATCTAC", "binding signal (RPM ratio (pull-down/input))": 0.222}
{"sequence": "GATGATTGTTCTCCCAGCTGATGAATTTTAAGGTTCGAGTAAACAAATTTTCCTAATCTTTCTGTTCAAGCGCCATCTAC", "binding signal (RPM ratio (pull-down/input))": 0.337}
{"sequence": "GATGATTGTTCTCCCAGCTGATGAATTGAGCACATCGAGTAAACAAATTTTCCTAATCTTTCTGTTCAAGCGCCATCTAC", "binding signal (RPM ratio (pull-down/input))": 0.724}
{"sequence": "GATGATTGTTCTCCCAGCTGATGAATTCACCGGGTCGAGTAAACAAATTTTCCTAATCTTTCTGTTCAAGCGCCATCTAC", "binding signal (RPM ratio (pull-down/input))": 0.179}
{"sequence": "GATGATTGTTCTCCCAGCTGATGAATTCGCCGCATCGAGTAAACAAATTTTCCTAATCTTTCTGTTCAAGCGCCATCTAC", "binding signal (RPM ratio (pull-down/input))": 0.966}
{"sequence": "GATGATTGTTCTCCCAGCTGATGAATTCTTCCCCTCGAGTAAACAAATTTTCCTAATCTTTCTGTTCAAGCGCCATCTAC", "binding signal (RPM ratio (pull-down/input))": 0.198}
{"sequence": "GATGATTGTTCTCCCAGCTGATGAATTTGCGCCCTCGAGTAAACAAATTTTCCTAATCTTTCTGTTCAAGCGCCATCTAC", "binding signal (RPM ratio (pull-down/input))": 1.11}
{"sequence": "GATGATTGTTCTCCCAGCTGATGAATTCCGGTCCTCGAGTAAACAAATTTTCCTAATCTTTCTGTTCAAGCGCCATCTAC", "binding signal (RPM ratio (pull-down/input))": 0.37}
{"sequence": "GATGATTGTTCTCCCAGCTGATGAATTCGGCTGGTCGAGTAAACAAATTTTCCTAATCTTTCTGTTCAAGCGCCATCTAC", "binding signal (RPM ratio (pull-down/input))": 0.525}
{"sequence": "GATGATTGTTCTCCCAGCTGATGAATTAGTATCATCGAGTAAACAAATTTTCCTAATCTTTCTGTTCAAGCGCCATCTAC", "binding signal (RPM ratio (pull-down/input))": 2.19}
{"sequence": "GATGATTGTTCTCCCAGCTGATGAATTTTCCATCTCGAGTAAACAAATTTTCCTAATCTTTCTGTTCAAGCGCCATCTAC", "binding signal (RPM ratio (pull-down/input))": 0.27}
{"sequence": "GATGATTGTTCTCCCAGCTGATGAATTTGACGCATCGAGTAAACAAATTTTCCTAATCTTTCTGTTCAAGCGCCATCTAC", "binding signal (RPM ratio (pull-down/input))": 1.22}
{"sequence": "GATGATTGTTCTCCCAGCTGATGAATTTGGAAGGTCGAGTAAACAAATTTTCCTAATCTTTCTGTTCAAGCGCCATCTAC", "binding signal (RPM ratio (pull-down/input))": 0.225}
{"sequence": "GATGATTGTTCTCCCAGCTGATGAATTACATTTGTCGAGTAAACAAATTTTCCTAATCTTTCTGTTCAAGCGCCATCTAC", "binding signal (RPM ratio (pull-down/input))": 1.61}
{"sequence": "GATGATTGTTCTCCCAGCTGATGAATTCATGCGCTCGAGTAAACAAATTTTCCTAATCTTTCTGTTCAAGCGCCATCTAC", "binding signal (RPM ratio (pull-down/input))": 0.943}
{"sequence": "GATGATTGTTCTCCCAGCTGATGAATTGATGACATCGAGTAAACAAATTTTCCTAATCTTTCTGTTCAAGCGCCATCTAC", "binding signal (RPM ratio (pull-down/input))": 1.05}
{"sequence": "GATGATTGTTCTCCCAGCTGATGAATTGACACACTCGAGTAAACAAATTTTCCTAATCTTTCTGTTCAAGCGCCATCTAC", "binding signal (RPM ratio (pull-down/input))": 0.655}
{"sequence": "GATGATTGTTCTCCCAGCTGATGAATTAGGCTAGTCGAGTAAACAAATTTTCCTAATCTTTCTGTTCAAGCGCCATCTAC", "binding signal (RPM ratio (pull-down/input))": 0.876}
{"sequence": "GATGATTGTTCTCCCAGCTGATGAATTTGGAGGGTCGAGTAAACAAATTTTCCTAATCTTTCTGTTCAAGCGCCATCTAC", "binding signal (RPM ratio (pull-down/input))": 0.55}
{"sequence": "GATGATTGTTCTCCCAGCTGATGAATTTGCCATTTCGAGTAAACAAATTTTCCTAATCTTTCTGTTCAAGCGCCATCTAC", "binding signal (RPM ratio (pull-down/input))": 2.91}
{"sequence": "GATGATTGTTCTCCCAGCTGATGAATTAGTCAGTTCGAGTAAACAAATTTTCCTAATCTTTCTGTTCAAGCGCCATCTAC", "binding signal (RPM ratio (pull-down/input))": 0.678}
{"sequence": "GATGATTGTTCTCCCAGCTGATGAATTCTCACAGTCGAGTAAACAAATTTTCCTAATCTTTCTGTTCAAGCGCCATCTAC", "binding signal (RPM ratio (pull-down/input))": 0.207}
{"sequence": "GATGATTGTTCTCCCAGCTGATGAATTAACTGGCTCGAGTAAACAAATTTTCCTAATCTTTCTGTTCAAGCGCCATCTAC", "binding signal (RPM ratio (pull-down/input))": 0.213}
